# PubChem BioAssay AID651582 (Sanford-Burnham Center for Chemical Genomics, 2012)
# Some of the results follow. These are further read-outs of the screen, such as a control signal, another cell line or another target. No call is given for them. Compounds called inactive in the main read-out are mostly missing here.
# Assay: inhibitors of triacylglycerol accumulation, primary screen, cell-based, uHTS, fluorescence, H9c2 (AID 651582)
# Conditions: H9c2 cells, Nile Red lipid (TAG) fluorescence; measured here:; at 12.5 µM; cells loaded with 200 µM oleic acid
row,SMILES,"DAPI nuclei signal change (viability), lower = more cytotoxic [%]"
1,O=C1N=C(N2CCOCC2)S/C1=C/c1ccc(-c2ccc(F)cc2)o1,-38.7
2,COCCNc1nc(-c2ccccc2CO)c2sc(-c3ccccc3)cc2n1,34.6
3,O=C(CCl)N(CCCNC(=O)C(F)(F)F)c1ccc([N+](=O)[O-])cc1,-11.6
4,O=C(Nc1nc2nc(-c3ccccc3)cc(-c3ccccc3)n2n1)c1ccco1,8.86
5,O=C(Nc1ccc(S(=O)(=O)N2CCOCC2)cc1)c1ccc([N+](=O)[O-])s1,-49.5
6,O=C(Nc1cccc(-c2csc(Nc3ccc(Cl)cc3)n2)c1)c1cc([N+](=O)[O-])cc(C(F)(F)F)c1,-13.6
7,O=C(Nc1ccccc1)c1nc[nH]c1C(=O)NCCCCCCNC(=O)c1[nH]cnc1C(=O)Nc1ccccc1,10.6
8,O=C(NC1CCCC1)C(c1c[nH]c2ccccc12)N(C(=O)Cn1nnc(-c2ccc(Cl)cc2)n1)c1ccccc1 (stereo not drawn),-20.2
9,O=C(N/N=C/c1cc(Br)ccc1O)c1ccncc1,-16.2
10,CCCC(=O)Nc1ccc2nc(SCC(=O)Nc3ccc(N4CCOCC4)c(Cl)c3)sc2c1,-9.64
11,O=C(NCCCCCCCN1CCCCCCC1)C(C1CCCCC1)C1CCCCC1,-31.3
12,Cc1ccc(C2C(C=Nc3c(C)n(C)n(-c4ccccc4)c3=O)=C(c3ccccc3)Oc3ccccc32)cc1 (stereo not drawn),-11.3
13,Cc1c(P(=S)(c2ccccc2)c2ccccc2)[n+]2ccccc2n1C/C=C/c1ccccc1,-14.7
14,O=C(COc1ccc(Br)cc1CNC1CCCCC1)NCCc1ccccc1,-26.1
15,Oc1ccccc1C(Nc1nccs1)c1ccc2cccnc2c1O (stereo not drawn),-21.8
16,CC(C)c1ccc2c(c1)C(c1ccc(N3CCOCC3)cc1)=NNC(c1cccs1)=N2,-13.1
17,CC(=O)n1cc(N(C(=O)CCl)c2ccccc2)c2ccccc21,-14
18,OCCCn1c(C2CCCN2c2nc(-c3ccc(Cl)cc3)cs2)nc2cc(Cl)c(N3CCCCC3)cc21 (stereo not drawn),-3.3
19,COc1ccc(S(=O)(=O)N2N=C(C)Oc3ccccc3C2=O)cc1,-35
20,CCCCCCCCCCCCCCCC[N+](C)(C)CCl,-44.6
21,CCCCCCN(C(=O)CCCCCN1C(=O)NC(c2ccc([N+](=O)[O-])cc2)C(C(=O)OCc2ccccc2)=C1C)C(C(=O)NCCCC)C1CCCCC1 (stereo not drawn),-16.5
22,Cc1ccc(-c2nn(-c3ccccc3)cc2NC(=O)CCl)cc1,-37.1
23,COc1cc(C2C(C#N)=C(N)Oc3cc(N)ccc32)cc(OC)c1OC (stereo not drawn),-28.1
24,C=CC(=O)Nc1ccc(CN2C(=O)N(c3c(Cl)c(OC)cc(OC)c3Cl)Cc3cnc(NCCCCN(CC)CC)nc32)cc1,-47.2

row,SMILES,"DAPI nuclei signal change (viability), lower = more cytotoxic [%]"
1,CSCCOC(=O)c1[nH]c2c(c1C)C(=O)CC(c1ccco1)C2 (stereo not drawn),-36.3
2,CCCCCc1cc(=O)oc2c(C(CCN3CCCCC3)c3ccc4c(c3)OCO4)c(OC)cc(OC)c12 (stereo not drawn),-48.4
3,COc1cc(NC(=O)c2cc([N+](=O)[O-])ccc2NC(=O)CN2CCN(c3ccccn3)CC2)cc(OC)c1,-23.3
4,Cc1ccc2c(c1)N(C(=O)CCC(=O)NCCCN1CCC(Cc3ccccc3)CC1)CCO2,-32.2
5,c1ccc(Nc2nc(N3CCNCC3)nc(N3CCOCC3)n2)cc1,-26.5
6,COc1ccc(Oc2nc(-c3ccccn3)nc3ccccc23)cc1,-21
7,O=C(COC(=O)C1=COCCO1)NCc1ccc(Cl)cc1Cl,-49.8
8,CCOc1cc(CNC(C)(C)C)ccc1OCC(=O)Nc1cccc(C(F)(F)F)c1,-41.5
9,CC1CCC(C(C)C)C(OC(=O)Cn2c(-c3ccc(Br)cc3)[n+](C)c3ccccc32)C1 (stereo not drawn),-18.7
10,CCCOC(=O)c1ccc(NC(=O)CCOc2ccccc2)cc1,1.85
11,Cc1nn(Cc2c(Cl)cccc2Cl)c(C)c1NC(=O)c1cn(-c2ccccc2)nc1-c1ccccc1,-6.12
12,C=CC[C@@H](CC(=O)N(CCO)Cc1ccccc1)C(=O)N[C@H](COC(=O)[C@@H](CC=C)CC(=O)OC(C)(C)C)C(C)(C)C,-7.71
13,COc1cc(NC(=O)Nc2nc(C(N)Cc3ccc(C(F)(F)F)cc3)cs2)cc(OC)c1OC (stereo not drawn),-32.6
14,Oc1ccc(N=Nc2ccc3c(c2)OCCO3)c2cccnc12,-47.2
15,CCOc1ccc2nc(NC(=O)C3CCCN(S(=O)(=O)c4c(C)noc4C)C3)sc2c1 (stereo not drawn),-6.13
16,CCC(=O)Nc1nonc1-c1nc2ccccc2n1Cc1cccc2ccccc12,-18
17,Cc1c(C(=O)N2CC3(CC(c4cccc(NC(=O)CC(c5ccccc5)c5ccccc5)c4)=NO3)C[C@@H]2C(N)=O)cc([N+](=O)[O-])cc1[N+](=O)[O-] (stereo partly drawn),-1.18
18,CCOc1ccc(CCNC(=O)Cn2c(-c3nonc3N)nc3ccccc32)cc1OCC,-6.02
19,CCN(CC)CCNC(=O)c1c(C)n(-c2ccccc2)c2cc(Br)c(OC)cc12,-10.7
20,NC(Cc1ccc(C(F)(F)F)cc1)c1csc(Nc2nncc3ccccc23)n1 (stereo not drawn),-11.9
21,CCCC(=O)NC(c1ccc(C)cc1)c1ccc2cccnc2c1O (stereo not drawn),-43
22,CCOC(=O)Nc1nc(-c2ccccc2)c(C(=O)c2ccc(Cl)cc2)s1,-28.2
23,Cc1sc(NC(=O)c2cccc([N+](=O)[O-])c2)c(C(N)=O)c1-c1ccc(C(C)(C)C)cc1,-5.33
24,Cc1ccc(/C=N/NC(=O)c2c(C)nc3ccc(Br)cn23)cc1,-30.8

row,SMILES,"DAPI nuclei signal change (viability), lower = more cytotoxic [%]"
1,COC(=O)c1ccc(Cl)c(NC(=O)NC23CC4CC(CC(C4)C2)C3)c1,-9.34
2,CC1(C(=O)NCc2ccco2)Cc2c(-c3cccc(C(F)(F)F)c3)ccnc2O1 (stereo not drawn),-39.4
3,COc1cccc(C2c3c(C)nn(-c4ccc([N+](=O)[O-])cc4)c3N=C3C(=O)Nc4ccccc4N32)c1 (stereo not drawn),-28.1
4,CC(C)CNC(=O)c1coc(=O)c(Br)c1,-39.6
5,Cc1occc1C(=O)NC(C)CCc1ccccc1 (stereo not drawn),1.56
6,COc1cc(C)c2sc3ccccc3c(=O)c2c1NCCN(C)C,-39.1
7,CN(C)CCNC(=O)c1cccc2nc3c(ccc4ccccc43)nc12,-11.4
8,COc1ccc(OC)c(C2CC(c3ccccc3)=NN2C(=S)Nc2ccccc2)c1 (stereo not drawn),-41.1
9,Cc1cc(C(=O)COC(=O)c2ccc([N+](=O)[O-])o2)c(C)n1CC1CCCO1 (stereo not drawn),-44.3
10,CCCCCc1cc(=O)oc2c(C(CCN3CCCC3)c3cc(OC)c(OC)c(OC)c3)c(OC)cc(OC)c12 (stereo not drawn),-43.2
11,CC(C)C[C@H](CO)N(Cc1ccccc1)S(=O)(=O)N(Cc1ccccc1)[C@@H](CO)CC(C)C,-3.88
12,CCCCCc1cc(=O)oc2c(C(CCN3CCN(c4ccccc4)CC3)c3ccc4c(c3)OCO4)c(OC)cc(OC)c12 (stereo not drawn),10.3
13,CCC(=O)Nc1ccc(C(=O)Cn2ncc(Cl)c(Cl)c2=O)cc1,-39.6
14,Cc1cc(=O)oc2cc(NC(=O)c3cccc(Br)c3)ccc12,-29.3
15,O=[N+]([O-])c1ccccc1/C=C/C=N/Nc1ccc(S(=O)(=O)Nc2ccc(Cl)cc2)cc1[N+](=O)[O-],-4.49
16,COc1ccc(NS(=O)(=O)c2cc(C)ccc2NC(=O)c2cc(C)oc2C)cc1,-35
17,CCOCC(=O)NC1CCc2cc(OC)c(OC)c(OC)c2-c2ccc(SC)c(=O)cc21 (stereo not drawn),-43
18,NC(Cc1ccc(Cl)cc1)c1csc(NC(=O)NCCc2ccccc2)n1 (stereo not drawn),-27.9
19,C(=N\Nc1nc2ccccc2[nH]1)/c1cccc2nccnc12,-17.1
20,CCCCC(=NCCc1c(C)[nH]c2ccc(OC)cc12)C1=C(O)CC(c2ccccc2)CC1=O (stereo not drawn),-31.4
21,Oc1ccc(N=Nc2ccc3c(c2)OCCO3)c2ncccc12,-16.6
22,COC(=O)C1=C(c2ccc(OC)cc2)OC(=O)C1(C)C,-40.2
23,CCOc1ccc(CCNC(=O)CCc2nc(-c3ccc(C)cc3)no2)cc1OCC,-6.95
24,COc1ccc(-c2cnnc(N/N=C/c3ccc(-c4ccc([N+](=O)[O-])cc4)o3)n2)cc1,-24.8

row,SMILES,"DAPI nuclei signal change (viability), lower = more cytotoxic [%]"
1,COc1cc(/C=C/C(=O)N2CCC=CC2=O)cc(OC)c1OC,-35.4
2,c1ccc(-c2nc(N3CCOCC3)cc(N3CCOCC3)n2)cc1,-3.13
3,N#CC1=C(N)Oc2cc(Nc3ccccc3)ccc2C1c1ccncc1 (stereo not drawn),-39.7
4,C=CCC[C@H](Cc1ccc(F)cc1)C(=O)OC[C@H](C)NC(=O)[C@@H](CC=C)CC(=O)N[C@H](CO)Cc1ccccc1,-12.4
5,C[C@]12c3[nH]c4ccccc4c3CCN1C(=O)C(CC(=O)NCC13CC4CC(CC(C4)C1)C3)C[C@@H]2C(=O)N1CCCCC1 (stereo partly drawn),-40.2
6,Cc1ccc(C(=O)N/C(=C\c2ccc(-c3ccccc3[N+](=O)[O-])o2)C(=O)NCCN(C)C)cc1,-16.2
7,C=CC[C@@H](CC(=O)N(CCO)Cc1ccccc1)C(=O)N[C@H](COC(=O)[C@@H](CC=C)Cc1ccc(F)cc1)Cc1ccccc1,-1.84
8,Clc1ccc(-c2csc(NNC3=NCCCCC3)n2)cc1,-48.4
9,COc1ccc(Cc2n[nH]c(=S)o2)cc1,-28.1
10,O=C(O)CC1(CC(=O)Nc2cc(C(F)(F)F)cc(C(F)(F)F)c2)CCCCC1,-37.8
11,Nc1ncnc2c1ncn2C1C=C(CO)C(O)C1O (stereo not drawn),-14.2
12,Oc1ccccc1/C=N/Nc1nc2ccccc2o1,-29.8
13,CC(=O)Nc1ccc(NC2=Nc3ccccc3N3C2=Nc2c(c(C)nn2-c2ccccc2)C3c2ccccc2)cc1 (stereo not drawn),-2.9
14,CC(C)=CCNc1ncnc2c1c(C#N)cn2C1OC(CO)C(O)C1O (stereo not drawn),-29.5
15,COc1ccc(/C=C/C(=O)c2cc(F)ccc2OC(=O)c2ccccc2)cc1OC,-35.4
16,CCCCNC(=O)Nc1ccc(C2SCCS2)cc1,-48.7
17,COCCNc1nc(-c2ccc(OC)cc2C)c2sc(-c3ccccc3)cc2n1,-44.4
18,CN(C)CCNc1nc2sc3c(c2c(=O)n1CCc1ccccc1)CCCCC3,-31.5
19,CC1(c2cc([N+](=O)[O-])cc([N+](=O)[O-])c2)CC(C)(C)N(C(=O)c2ccccc2)c2ccccc21 (stereo not drawn),-9.83
20,O=C1c2cccc(Sc3ccccc3)c2C(=O)c2c(Sc3ccccc3)cccc21,-2.65
21,COc1ccc(C(=O)c2no[n+]([O-])c2C(=O)c2ccc(OC)cc2)cc1,-27.2
